Source: PubChem BioAssay AID588342 (National Center for Advancing Translational Sciences (NCATS), 2011)
Screen size: about 360,000 compounds; about 25,000 (6.9%) were called active. The inconclusive results got no clear call from the source; some entries with a clear call stand among them for comparison. Calls come from the whole dose curve; as a rule, active = well fitted inhibition curve with a large enough effect; inconclusive = small, poorly fitted or top-dose-only effect; inactive = flat fitted curve, though single readings scatter. Potencies beside an inconclusive call are fits to weak or partial responses and may not hold up.

target: Luciferin 4-monooxygenase (Photinus pyralis) (UniProt P08659); test: qHTS profiling assay for firefly luciferase inhibitor/activator using purifed enzyme and Km concentrations of substrates (counterscreen for miR-21 project); conditions: purified FLuc, luminescence inhibition; activity change, negative = inhibition: at 57.5 µM (top of the series); note: nearly all actives have a fitted effect of over 55% in size;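 for activity change, negative = inhibition: plate controls were vehicle for no effect and reference inhibitor for full effect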
In short: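 Biochemical qHTS of compounds, final roughly 60 µM downward over six points, against 10 nM purified firefly luciferase using Km concentrations of substrates (10 uM D-luciferin, 10 uM ATP) in Tris acetate pH 7.5 buffer; luminescence output.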
Potency is the fitted concentration of half-maximal effect; tags give direction and shape of the fitted curve.

UniProt P08659, sequence (P08659 whole entry, looked up): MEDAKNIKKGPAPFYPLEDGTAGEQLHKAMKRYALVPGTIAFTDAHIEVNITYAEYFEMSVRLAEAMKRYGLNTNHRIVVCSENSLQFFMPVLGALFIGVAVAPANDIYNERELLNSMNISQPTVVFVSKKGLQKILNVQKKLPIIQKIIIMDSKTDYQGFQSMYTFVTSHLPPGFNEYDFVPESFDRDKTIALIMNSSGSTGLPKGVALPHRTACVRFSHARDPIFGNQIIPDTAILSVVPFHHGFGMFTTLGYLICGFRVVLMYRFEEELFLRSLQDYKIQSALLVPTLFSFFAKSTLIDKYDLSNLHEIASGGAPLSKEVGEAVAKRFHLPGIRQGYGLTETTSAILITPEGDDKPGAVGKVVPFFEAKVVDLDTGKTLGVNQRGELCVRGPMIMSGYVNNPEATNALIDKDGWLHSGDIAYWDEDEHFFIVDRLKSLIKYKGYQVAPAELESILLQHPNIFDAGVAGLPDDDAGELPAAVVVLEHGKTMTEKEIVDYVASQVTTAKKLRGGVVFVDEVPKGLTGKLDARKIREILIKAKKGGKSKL

Row | Structure (SMILES) | activity change, negative = inhibition | Potency
1 | Cc1ccc(C2NC(=S)NC3=C2C(=O)CC(C)(C)C3)cc1 (stereo not drawn) | inactive: 7.42% | –
2 | O=C(NCCSc1ccccc1)c1cccnc1 | – | inconclusive: 19 µM [inhibitor, single point]
3 | Cc1ccc(N2CC(NC(=O)c3cc4ccccc4o3)CC2=O)cc1 (stereo not drawn) | inactive: 7.02% | –
4 | Cc1cc(C)c2nc(Cl)c(CN(Cc3ccco3)C(=O)Nc3ccccc3C)cc2c1 | – | inconclusive: 16.9 µM [inhibitor, partial curve, poor fit]
5 | O=C(COC(=O)Cc1ccc2c(c1)OCCO2)Nc1ccc(S(=O)(=O)N2CCCC2)cc1 | inactive: 2.45% | –
6 | CC(C)(C)NC(=O)COC(=O)c1ccccc1Nc1ccc(SC(F)F)cc1 | – | inconclusive: 26.9 µM [inhibitor, partial curve]
7 | COc1ccc(NC(=O)Cn2c(=O)n(Cc3ccccc3)c(=O)c3sc4ccccc4c32)cc1 | inactive: 2.57% | –
8 | Cn1nc(-c2ccccc2F)c2cc(C(=O)Nc3ccc4c(c3)OCCO4)sc21 | – | active: 9.53 µM
9 | CCc1ccc(Cn2c(CNS(=O)(=O)c3ccc(C)c(C)c3)nc3cccnc32)cc1 | – | inconclusive: 21.3 µM [inhibitor, partial curve, poor fit]
10 | O=C(N/N=C/c1ccccc1O)C(=O)Nc1ccccn1 | – | inconclusive: 8.49 µM [inhibitor, partial curve, poor fit]
11 | COC(=O)CSc1ncnc2c(C)csc12 | – | inconclusive: 30.1 µM [inhibitor, partial curve, poor fit]
12 | Cc1ccc(OCC(=O)N2CCCc3ccccc32)cc1 | – | inconclusive: 26.9 µM [inhibitor, partial curve]
13 | CCS(=O)(=O)c1nc(S(=O)(=O)c2ccc(C)cc2)c(N2CCC3(CC2)OCCO3)s1 | inactive: 1.85% | –
14 | O=C(Nc1cc2c3c(c1)CC(=O)N3CCC2)C1CC1 | inactive: 8.4% | –
15 | S=C(NCC1CCCO1)n1nnc2ccccc21 (stereo not drawn) | – | inconclusive: 6.75 µM [inhibitor, single point]
16 | O=C(CCc1nc2ccccc2c(=O)[nH]1)NCCN1C(=O)S/C(=C\c2ccc(Cl)cc2Cl)C1=O | – | inconclusive: 19 µM [inhibitor, partial curve]
17 | COc1cc(N=c2ssnc2Cl)cc(OC)c1OC | – | active: 15.1 µM
18 | Cc1nn2c(C)c(C(=O)NC(C)(C)C)cnc2c1-c1ccc(F)cc1 | inactive: -13.1% | –
19 | COc1cc(SC)ccc1C(=O)NCCc1ccccc1 | – | active: 6.01 µM
20 | Cc1ccccc1OCc1nc2ccccc2c(=O)n1NC(=O)c1ccco1 | – | inconclusive: 37.9 µM [inhibitor, partial curve, poor fit]
21 | CC(C)CC(NC(N)=O)C(=O)Nc1ccc2c(c1)OCO2 (stereo not drawn) | – | inconclusive: 21.3 µM [inhibitor, partial curve, poor fit]
22 | O=C(CN1C(=O)S/C(=C\c2cc(Cl)c(O)c(Cl)c2)C1=O)Nc1ccccc1 | – | inconclusive: 21.3 µM [inhibitor, partial curve, poor fit]
23 | CC(C)c1nn2c(=O)cc(COC(=O)c3ccco3)nc2s1 | – | inconclusive: 26.9 µM [inhibitor, partial curve, poor fit]

Row | Structure (SMILES) | activity change, negative = inhibition | Potency
24 | O=c1[nH]c(SCc2ccccc2)nnc1-c1ccccc1 | – | inconclusive: 37.9 µM [inhibitor, single point]
25 | O=C(Nc1ccccc1Cl)C1Cc2ccccc2O/C1=N\O (stereo not drawn) | – | inconclusive: 26.9 µM [inhibitor, single point]
26 | COc1ccc(-c2cn3c(C)c(C(=O)Nc4cccc(NC(C)=O)c4)sc3n2)cc1 | – | active: 9.53 µM
27 | COc1cccc(-c2nnc3sc(-c4cccs4)nn23)c1 | – | inconclusive: 2.69 µM [inhibitor, full curve]
28 | Cc1ccc(S(=O)(=O)c2c(O)cc(C)c(NS(=O)(=O)c3ccc(Cl)cc3)c2C)cc1 | – | inconclusive: 30.1 µM [inhibitor, partial curve, poor fit]
29 | COc1ccccc1/C=C/C(=O)N1CCC(c2ccccc2)C1 (stereo not drawn) | – | active: 9.53 µM
30 | Cc1sc2ncnc(N/N=C/c3ccccc3O)c2c1C | – | active: 21.3 µM
31 | COc1ccc(C2=CSC3=NNC4(CCCCC4)NN23)cc1 | – | inconclusive: 26.9 µM [inhibitor, single point]
32 | COc1cc(C2CC(=O)Oc3c2c(=O)[nH]c2ccccc32)cc(OC)c1OC (stereo not drawn) | – | inconclusive: 21.3 µM [inhibitor, partial curve, poor fit]
33 | c1ccc(COc2ccc(CNCc3cccs3)cc2)cc1 | – | inconclusive: 23.9 µM [inhibitor, single point]
34 | Cc1ccc(CC(C(=O)O)C(C)C(=O)Nc2ccc(F)cc2)cc1 (stereo not drawn) | inactive: 0.39% | –
35 | Nc1cc(=O)[nH]c(SCC(=O)Nc2nnc(-c3ccccc3)s2)n1 | – | active: 23.9 µM
36 | Cc1c(NC(=O)c2ccc3c(c2)OCO3)cccc1-c1nc2ncccc2o1 | – | inconclusive: 23.9 µM [inhibitor, single point]
37 | COc1ccc(C(=O)Nc2cccc(/C=C(\CCC(=O)O)c3nc4ccccc4s3)c2)cc1 | – | active: 9.53 µM
38 | Cc1ccc(CN(C(=O)COc2cc(C)c(Cl)c(C)c2)c2ccccn2)o1 | – | inconclusive: 13.5 µM [inhibitor, partial curve, poor fit]
39 | Cc1csc(NC(=O)Cc2ccc(F)cc2)n1 | – | inconclusive: 26.9 µM [inhibitor, partial curve, poor fit]
40 | Cc1noc(/C=C/c2ccccn2)c1[N+](=O)[O-] | – | inconclusive: 23.9 µM [inhibitor, partial curve, poor fit]
41 | O=C(CNC(=O)c1ccccc1F)OCc1nc2ccccc2s1 | – | active: 16.9 µM
42 | Cc1ccc(-n2nnnc2SCC(=O)NC(C(=O)O)(c2ccccc2)c2ccccc2)cc1C | – | inconclusive: 26.9 µM [inhibitor, partial curve, poor fit]
43 | COc1ccc(N2CCN(C(=O)c3ccc(COc4ccc([N+](=O)[O-])cc4)o3)CC2)cc1 | inactive: -2.53% | –
44 | O=C(CC1CC2CCC1C2)Nc1nc(-c2ccccn2)cs1 (stereo not drawn) | – | active: 23.9 µM
45 | Cc1csc(NC(=O)c2cc(-c3ccncc3)nc3ccccc23)n1 | – | inconclusive: 21.3 µM [inhibitor, partial curve, poor fit]
46 | CCOc1ccc(C=Nc2cccc3ncccc23)cc1 | – | active: 21.3 µM

Row | Structure (SMILES) | activity change, negative = inhibition | Potency
47 | CCN(CC)S(=O)(=O)c1ccc2c(c1)c(=O)c(C(=O)N1CCN(c3cc(Cl)ccc3C)CC1)cn2C | inactive: -1.78% | –
48 | COC(=O)CNc1c(-c2ccccn2)nc2ccc(Br)cn12 | – | active: 3.38 µM
49 | CCCOc1ccc(/C=N/Nc2cccc([N+](=O)[O-])c2)c(O)c1 | – | inconclusive: 3.01 µM [inhibitor, partial curve, poor fit]
50 | Cc1cc(C)c2c(c1)c(C)cc1nnc(SCc3ccccc3C#N)n12 | inactive: -12.6% | –
51 | COCCn1c(C)cc(C(=O)CSc2nc3ccccc3c(=O)[nH]2)c1C | – | active: 5.36 µM
52 | COc1ccc(/C=C(\C#N)C(=O)OC2CCOC2=O)cc1 (stereo not drawn) | – | inconclusive: 26.9 µM [inhibitor, partial curve]
53 | Cc1ccc(C)c(Cn2c(=O)c3c(nc4n3CCN4c3ccccc3)n(C)c2=O)c1 | – | inconclusive: 4.26 µM [inhibitor, partial curve, poor fit]
54 | CCOC(=O)C1CCCN(C(=O)c2ccc3oc(CCc4ccccc4)nc3c2)C1 (stereo not drawn) | – | active: 13.5 µM
55 | O=C(COc1ccc(/C=N/NC(=O)c2ccncc2)cc1)Nc1cccc([N+](=O)[O-])c1 | – | inconclusive: 8.49 µM [inhibitor, partial curve]
56 | Cc1cccc(C)c1NC(=O)CS(=O)(=O)c1nc(-c2ccc(Cl)cc2)cn1-c1ccccc1 | – | inconclusive: 15.1 µM [inhibitor, partial curve, poor fit]
57 | CN(N=Nc1cccc([N+](=O)[O-])c1)c1cccc([N+](=O)[O-])c1 | – | inconclusive: 7.57 µM [inhibitor, partial curve, poor fit]
58 | O=C1C=C(c2ccc3[nH]ccc3c2)C[C@@H](c2ccc(F)cc2)C1 | – | inconclusive: 21.3 µM [inhibitor, single point]
59 | CCOc1ccc(N2C(=O)C3ON(c4ccccc4)C(c4ccco4)C3C2=O)cc1 (stereo not drawn) | – | inconclusive: 37.9 µM [inhibitor, partial curve, poor fit]
60 | COC(=O)/C(=C\Nc1ccc(Cl)cc1Cl)NC(=O)c1ccccc1 | – | inconclusive: 26.9 µM [inhibitor, single point]
61 | COc1cc(NC(=O)c2ccc3snnc3c2)cc(OC)c1 | – | inconclusive: 10.7 µM [inhibitor, partial curve]
62 | CCSc1nnc(NC(=O)CSC2=NN3CCCC(=O)N=C3S2)s1 | – | inconclusive: 12 µM [inhibitor, partial curve, poor fit]
63 | CCOc1cc(CNc2ccc3cn[nH]c3c2)ccc1OC | inactive: -1.43% | –
64 | Cc1nnc(SCC(=O)Nc2nsc(-c3ccccc3)n2)s1 | – | inconclusive: 30.1 µM [inhibitor, partial curve, poor fit]
65 | Cc1nc(-c2ccc(Cl)cc2)sc1C1(C)CC(c2ccc(F)cc2)=NO1 (stereo not drawn) | – | inconclusive: 26.9 µM [inhibitor, partial curve]
66 | O=C1S/C(=C\C=C\c2ccco2)C(=O)N1c1ccccc1 | – | inconclusive: 6.01 µM [inhibitor, partial curve, poor fit]
67 | O=C1C(=O)N(CCCc2ccccc2)c2ccccc21 | – | inconclusive: 26.9 µM [inhibitor, partial curve, poor fit]
68 | N/C(=N\OC(=O)COc1ccccc1Cl)c1ccc(Cl)cc1 | – | inconclusive: 23.9 µM [inhibitor, single point]
